Relative growth data for 37 molecules are collected here from the supplement of paper PMC9446081.

Out of some 39,000 compounds screened, about 220 (0.56%) showed activity. Some of the results follow.
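Further: static incubation at 37 °C against the wild-type strain, values averaged over two biological replicates.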

The test system of this assay is Escherichia coli K-12 BW25113. Kind of assay: relative growth (OD600 normalised to plate interquartile mean) (fraction); higher = less growth inhibition, active = 0.2 or less. The following applies: 50 µM; LB; incubation time: overnight (16-24 h).
Consider `C=CC[C@H](CC(=O)N(CCO)Cc1ccccc1)C(=O)N1CCC[C@@H]1COC(=O)[C@H](CC=C)NC(=O)OCC1c2ccccc2-c2ccccc21`, for which the relative growth was inactive: 1. With `C[C@H](CO)N1C[C@H](C)[C@H](CN(C)Cc2ccc(Oc3ccccc3)cc2)Oc2ccc(NS(=O)(=O)c3ccc(Cl)cc3)cc2C1=O` the figure was inactive: 1.01; with `C[C@@H]1CCCCO[C@@H](CN(C)C(=O)C2CCCCC2)[C@@H](C)CN([C@@H](C)CO)C(=O)c2cc(NS(=O)(=O)c3cccs3)ccc2O1`, inactive: 1.01; with `CCN(CC)CCOC(=O)C(c1ccccc1)c1ccccc1.Cl`, inactive: 1.17.

In the case of `CC(C)NC(=O)Nc1ccc2c(c1)C(=O)N([C@H](C)CO)C[C@@H](C)[C@H](CN(C)C(=O)C1CCCCC1)OCCCC[C@@H](C)O2`, the relative growth is inactive: 1.02. As for `Cc1noc(C)c1NC(=O)N(C)C[C@@H]1Oc2ccc(NC(=O)Cn3cnnn3)cc2CC(=O)N([C@@H](C)CO)C[C@@H]1C`, the relative growth was inactive: 1.01. With `C[C@@H]1CN([C@@H](C)CO)C(=O)Cc2cc(NC(=O)Nc3cccc4ccccc34)ccc2O[C@H]1CN(C)C(=O)Nc1ccc(F)cc1` the figure was inactive: 0.996.

On to `Cc1ccc(S(=O)(=O)N(C)C[C@@H]2Oc3c(NC(=O)C4CC4)cccc3C(=O)N([C@@H](C)CO)C[C@@H]2C)cc1`, for which the relative growth was inactive: 1.01. With `CC(Oc1c(Cl)cccc1Cl)C1=NCCN1.Cl` (configuration not stated) the figure was inactive: 1.02. As for `CN(C)C(=O)COC[C@]12COC[C@H]1CN(S(C)(=O)=O)C2`, the relative growth was inactive: 0.987. With `C[C@H]1CN([C@@H](C)CO)C(=O)CCCn2nncc2CO[C@H]1CN(C)C(=O)CCCN(C)C`, the relative growth was inactive: 0.988. The same measure for `C[C@@H]1CN([C@H](C)CO)C(=O)c2cccc(NC(=O)Nc3ccccc3)c2O[C@@H]1CN(C)Cc1ccc(-c2ccccc2)cc1`: inactive: 0.993; for `Cc1noc(C)c1S(=O)(=O)Nc1ccc2c(c1)CC(=O)N([C@H](C)CO)C[C@@H](C)[C@@H](CN(C)S(=O)(=O)c1cn(C)cn1)O2`: inactive: 1.01. The same measure for `Cc1ccc(S(=O)(=O)N(C)C[C@@H]2Oc3ncc(-c4ccncc4)cc3C(=O)N([C@@H](C)CO)C[C@H]2C)cc1`: inactive: 1.01. As for `Cc1noc(C)c1S(=O)(=O)Nc1ccc2c(c1)CC(=O)N([C@@H](C)CO)C[C@H](C)[C@H](CN(C)S(=O)(=O)c1c(C)noc1C)O2`, the relative growth is inactive: 1.02. In the case of `C=CCNC(=O)[C@@H]1[C@H]2C(=O)O[C@H](c3ccccc3)[C@H](c3ccccc3)N2[C@H](c2ccc(OCCO)cc2)[C@@]12C(=O)Nc1ccc(C#Cc3ccc(OC)cc3)cc12`, the relative growth is inactive: 1.06. As to `O=C(CCCCCCC(=O)Nc1ccc([C@H]2O[C@@H](CSc3nc4ccccc4o3)C[C@H](c3ccccc3)O2)cc1)NO`, the relative growth is inactive: 0.972. With `C[C@H]1CCCCO[C@H](CN(C)Cc2ccc(Cl)c(Cl)c2)[C@@H](C)CN([C@@H](C)CO)C(=O)c2cc(NC(=O)CCC(F)(F)F)ccc2O1` the figure was inactive: 1.06; with `OC[C@@H]1CC[C@@H]2O[C@H](CCc3ccc(C#CCc4ccccc4)cc3)[C@H](n3cc(-c4ccccc4)nn3)C[C@@H]2O1`, inactive: 1.03. With `C[C@@H]1CCCCO[C@@H](CN(C)S(C)(=O)=O)[C@@H](C)CN([C@H](C)CO)C(=O)c2cc(NS(=O)(=O)c3cn(C)cn3)ccc2O1` the figure was inactive: 1.01; with `C[C@@H]1CN([C@H](C)CO)C(=O)c2cc(NC(=O)Nc3ccccc3)ccc2O[C@@H](C)CCCCO[C@@H]1CN(C)C(=O)Cc1ccccc1`, inactive: 1. As for `c1ccc([C@@H]2CCC[C@H](c3ccccc3)S2)cc1`, the relative growth was inactive: 1.02. The same measure for `COCC(=O)N(C)C[C@@H]1Oc2cc(C#CCN(C)C)ccc2S(=O)(=O)N([C@H](C)CO)C[C@H]1C`: inactive: 1; for `COc1ccc(S(=O)(=O)Nc2ccc3c(c2)C(=O)N([C@@H](C)CO)C[C@H](C)[C@H](CN(C)Cc2ccc(C(F)(F)F)cc2)OCCCC[C@@H](C)O3)cc1`: inactive: 1.05; for `CC(=O)N(C[C@@H](O)CO)c1c(I)c(C(=O)NC[C@@H](O)CO)c(I)c(C(=O)NC[C@@H](O)CO)c1I`: inactive: 0.978. The same measure for `C[C@@H]1CN([C@H](C)CO)S(=O)(=O)c2ccc(C#CC3(O)CCCC3)cc2O[C@@H]1CN(C)C(=O)Nc1ccc(F)cc1`: inactive: 0.975; for `C[C@@H]1CCCCO[C@@H](CN(C)CC2CCCCC2)[C@H](C)CN([C@H](C)CO)C(=O)c2cc(NC(=O)Cc3ccccc3)ccc2O1`: inactive: 0.96. With `CC(C)(C)OC(=O)N1CC[C@H](c2cn(-c3ccc(C(F)(F)F)cc3)nn2)[C@@H]1C(=O)Nc1cccc2cccnc12` the figure was inactive: 1.03; with `C[C@@H]1CCCCO[C@H](CN(C)C(=O)Nc2ccc3c(c2)OCO3)[C@H](C)CN([C@@H](C)CO)C(=O)c2cc(NS(=O)(=O)c3ccccc3)ccc2O1`, inactive: 1.03; with `CC12CCCC(O)(C1)C1CC(C)(C)C1CC2` (stereo not drawn) [beta-CARYOPHYLLENE ALCOHOL], inactive: 1.1.

Regarding `CC(C)C#Cc1cnc2c(c1)C(=O)N([C@@H](C)CO)C[C@@H](C)[C@H](CN(C)C(=O)c1ccc3c(c1)OCO3)O2`, the relative growth is inactive: 1.01. `C[C@H]1CN([C@@H](C)CO)C(=O)c2cc(C#CCN(C)C)cnc2O[C@@H]1CN(C)C(=O)Nc1cccc(F)c1`: the relative growth is inactive: 0.993. With `C[C@H](O)C#Cc1ccc2c(c1)O[C@H](CN(C)C)[C@@H](C)CN([C@@H](C)CO)S2(=O)=O` the figure was inactive: 1.04; with `C[C@@H]1CN([C@H](C)CO)C(=O)Cc2cc(NC(=O)CCCN(C)C)ccc2O[C@@H]1CN(C)S(=O)(=O)c1ccccc1`, inactive: 1.01. The same measure for `C[C@H]1CCCCO[C@H](CN(C)C(=O)Nc2ccccc2)[C@@H](C)CN([C@@H](C)CO)C(=O)c2cc(NS(=O)(=O)c3ccc(Cl)cc3)ccc2O1`: inactive: 0.998; for `CN1c2ccccc2[C@@H](NCCCCCCC(=O)Nc2ccccc2N)c2ccc(Cl)cc2S1(=O)=O`: inactive: 1.01. The same measure for `COc1ccc(COC[C@@]23Oc4ccccc4[C@@H](NC(=O)N2C(=O)c2ccccc2)[C@H]3CO[Si](C)(C)C(C)(C)C)cc1`: inactive: 1.04.
